# Assay results as given in PubChem BioAssay AID686978 (National Center for Advancing Translational Sciences (NCATS), 2013).
# In all, about 420,000 compounds went through this assay and about 64,000 (15%) were called active. Inconclusive results, whose numbers are uncertain, are shown with a selection of clear calls. Calls follow the shape of the dose curve; as a rule, active = well fitted inhibition curve with a large enough effect; inconclusive = small, poorly fitted or top-dose-only effect; inactive = flat fitted curve, though single readings scatter. Potencies of inconclusive entries are left out as doubtful fits.
# Test: qHTS for Inhibitors of human tyrosyl-DNA phosphodiesterase 1 (TDP1): qHTS in cells in absence of CPT; also: nearly all actives have a fitted effect of over 55% in size
# Details: DT40 Tdp1-/- hTDP1 cells, no CPT, ATP luminescence, 48 h
# Summary of the method: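 DT40 Tdp1-/-;hTDP1 cells, no CPT (DMSO vehicle only), 400 cells/well; compounds pin-transferred; ≥48 hr, 37 °C; CellTiter-Glo 30 min RT dark, luminescence read.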
# [1] = activity change, negative = growth inhibition: at 46.2 µM (top of the series) unless noted
# % is scaled to controls: 0 for no effect and ±100 for the full control effect; potency is read from the fitted curve at half-maximal effect; tags tell the direction and shape of the fitted curve.
smiles,measurement,setting,value
O=C(C1CCN(Cc2ccccc2O)CC1)N1CCN(Cc2ccc3c(c2)OCO3)CC1,Potency,[1],inactive
CCOC(=O)N1CCN(S(=O)(=O)c2ccc3c(c2)OCC(=O)N3)CC1,Potency,[1],inactive
Cc1ccc(C(C[N+](=O)[O-])c2c(C)cc3ccccn23)cc1 (stereo not given),Potency,[1],active: 16.4 µM
CCOC(=O)c1sc2ccccc2c1S(=O)(=O)N1CCN(c2cc(C)ccc2C)CC1,Potency,[1],"inconclusive [inhibitor, single point]"
C/C(=N\NC(=O)C(O)(c1ccccc1)c1ccccc1)c1ccc(C)o1,Potency,[1],active: 18.4 µM
O=C1C=C(c2cccc3c2Oc2ccccc2S3)C[C@@H](c2ccc(Cl)cc2)C1,Potency,[1],"inconclusive [inhibitor, single point]"
Cc1nn(C(=O)c2cccc(F)c2)c(C)c1S(=O)(=O)N1CCOCC1,Potency,[1],inactive
COc1cccc2sc(N(CCCN(C)C)C(=O)c3sc4ccccc4c3Cl)nc12,Potency,[1],active: 18.4 µM
O=C(C1CCN(c2ncnc3c2nc2n3CCCCC2)CC1)N1CCN(c2ccc(Cl)cc2)CC1,Potency,[1],inactive
CCCCc1c(O)nc2ccccn2c1=O,Potency,[1],inactive
O=C(OCc1cn([C@@H]2C[C@H](c3ccccc3)N(C(=O)C3CCCCC3)C[C@H]2O)nn1)c1ccccc1,Potency,[1],"inconclusive [inhibitor, partial curve]"
O=C(Nc1ccc(F)cc1)c1ccccc1,Potency,[1],"inconclusive [inhibitor, single point]"
Cc1cc(C(=O)COc2ccccc2Cl)c(C)n1C1CC1,Potency,[1],active: 6.51 µM
COc1ccc(CCNC(=O)c2cc3c(=O)oc4ccc(C)cc4c3s2)cc1OC,Potency,[1],"inconclusive [inhibitor, partial curve, poor fit]"
CCCOC1CCCN(C(=O)c2cc(Cl)c(Cl)cc2C(=O)O)C1 (stereo not given),Potency,[1],"inconclusive [inhibitor, single point]"
COc1ccccc1/C=C/C=C1\Oc2c(ccc(O)c2CN(C)C)C1=O,"activity change, negative = growth inhibition",[1],inconclusive: -30.3% [inhibitor]
CC(OC(=O)C1CCCC1)C(=O)Nc1ncc(Cl)cc1Cl (stereo not given),Potency,[1],inactive
CC(=O)OCC(=O)[C@@]1(O)CC[C@H]2[C@@H]3C[C@H](C)C4=CC(=O)C=C[C@]4(C)[C@H]3[C@@H](O)C[C@@]21C,"activity change, negative = growth inhibition",[1],inconclusive: -30.2% [inhibitor]
same,"activity change, negative = growth inhibition",at 46.2 µM (top of the series),inactive: -7.28%
CN1CCN(C(=O)Cn2ncc3c4ccccc4n(Cc4ccc(Cl)cc4)c3c2=O)CC1,Potency,[1],active: 10.3 µM
O=C(CSc1nccn1Cc1ccc(F)cc1)NCc1ccc(F)cc1,Potency,[1],"inconclusive [inhibitor, single point]"
CCOC(=O)N/N=C/c1cn(CCCOc2ccc(C)cc2)c2ccccc12,Potency,[1],active: 20.6 µM
CS(=O)(=O)N1CCc2cc(C(=O)N3CCN(c4ccccc4F)CC3)ccc21,Potency,[1],"inconclusive [inhibitor, single point]"
CCCCc1ccc(NC(=O)c2c(C)noc2C)cc1,Potency,[1],"inconclusive [inhibitor, single point]"
COc1ccc(CN2[C@@H](CC(=O)O)c3ccc(/C=C/C(=O)O)cc3S2(=O)=O)cc1,Potency,[1],"inconclusive [inhibitor, single point]"
O=C(CCSCc1ccc(Cl)cc1)NCc1ccc(F)cc1Cl,Potency,[1],"inconclusive [inhibitor, single point]"
COc1ccccc1CNc1nc2c(S(=O)(=O)c3ccccc3)nnn2c2ccc(Cl)cc12,Potency,[1],"inconclusive [inhibitor, partial curve]"
COc1ccc(C2C=C(c3ccc(Br)cc3)Nc3nnnn32)c(OC)c1 (stereo not given),Potency,[1],active: 23.1 µM
COc1ccc(Nc2cc(C(=O)NC3CCCC3)c3ccccc3n2)cc1,Potency,[1],"inconclusive [inhibitor, partial curve]"
O=C(NCc1cccs1)c1cccnc1SCCS(=O)(=O)c1ccc(C(F)(F)F)cn1,Potency,[1],"inconclusive [inhibitor, single point]"
CN(C)CCN(C(=O)CN1C(=O)c2ccccc2C1=O)c1nc2cc3c(cc2s1)OCO3,"activity change, negative = growth inhibition",[1],inconclusive: -30.8% [inhibitor]
CCCCN(CC)S(=O)(=O)c1ccc(C(=O)N(CCCN(C)C)c2nc3cc(C)cc(C)c3s2)cc1,Potency,[1],active: 23.1 µM
O=C(c1c(F)c(F)c(F)c(F)c1F)N1CCN(Cc2ccc3c(c2)OCO3)CC1,Potency,[1],inactive
Cc1ccc(NC(=O)c2c(NC(=O)c3ccccc3Cl)sc3c2CCC3)cc1,Potency,[1],"inconclusive [inhibitor, partial curve]"
CCC(C)(C)C1CCc2[nH]nc(C(=O)NC3CCCC3)c2C1 (stereo not given),Potency,[1],"inconclusive [inhibitor, single point]"
